According to paper PMC5210502:
No constants are given. Whether binding was seen depends on the method and setting. In cells and extracts the contact can be indirect. Some results given as binding are weak or reduced against the parent protein; the word gives no strength. For part of these data: Sequences can lack the tags named with a protein.

Protein sequences, listed by entry. Tags and fused reporters are not part of them.
UniProt Q8IUC6: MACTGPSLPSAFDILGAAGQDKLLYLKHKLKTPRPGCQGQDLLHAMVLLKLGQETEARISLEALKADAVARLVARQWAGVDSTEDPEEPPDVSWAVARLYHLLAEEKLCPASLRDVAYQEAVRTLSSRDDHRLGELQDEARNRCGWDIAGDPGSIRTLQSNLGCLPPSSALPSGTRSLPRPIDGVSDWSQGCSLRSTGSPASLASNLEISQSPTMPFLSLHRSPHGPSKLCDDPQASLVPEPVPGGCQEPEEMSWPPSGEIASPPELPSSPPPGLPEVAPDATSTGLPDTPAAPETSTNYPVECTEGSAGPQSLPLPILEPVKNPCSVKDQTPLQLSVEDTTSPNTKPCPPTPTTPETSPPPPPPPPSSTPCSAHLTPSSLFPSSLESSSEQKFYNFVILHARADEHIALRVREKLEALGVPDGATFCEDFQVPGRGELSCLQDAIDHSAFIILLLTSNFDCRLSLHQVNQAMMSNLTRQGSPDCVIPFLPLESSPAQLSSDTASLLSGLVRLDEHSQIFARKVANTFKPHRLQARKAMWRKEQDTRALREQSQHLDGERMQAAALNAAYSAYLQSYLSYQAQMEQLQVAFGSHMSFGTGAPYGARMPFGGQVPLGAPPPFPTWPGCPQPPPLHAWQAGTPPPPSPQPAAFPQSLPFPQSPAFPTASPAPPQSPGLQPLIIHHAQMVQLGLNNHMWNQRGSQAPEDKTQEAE
UniProt O00463: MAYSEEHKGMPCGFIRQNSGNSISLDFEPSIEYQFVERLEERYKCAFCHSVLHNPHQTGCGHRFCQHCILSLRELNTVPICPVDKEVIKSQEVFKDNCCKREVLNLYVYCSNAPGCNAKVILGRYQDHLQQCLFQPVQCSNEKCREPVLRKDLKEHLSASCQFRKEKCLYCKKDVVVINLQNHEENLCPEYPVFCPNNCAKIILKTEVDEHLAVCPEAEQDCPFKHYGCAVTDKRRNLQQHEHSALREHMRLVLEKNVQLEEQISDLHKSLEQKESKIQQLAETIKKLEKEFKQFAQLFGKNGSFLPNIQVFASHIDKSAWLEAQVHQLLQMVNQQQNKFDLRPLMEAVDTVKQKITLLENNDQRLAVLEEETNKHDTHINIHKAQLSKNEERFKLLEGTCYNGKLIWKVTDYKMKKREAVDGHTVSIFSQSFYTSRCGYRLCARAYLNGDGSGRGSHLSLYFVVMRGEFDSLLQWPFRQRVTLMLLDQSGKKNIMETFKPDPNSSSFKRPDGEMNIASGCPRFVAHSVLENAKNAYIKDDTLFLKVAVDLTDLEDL

Tests used:
[1] = target: T1, endogenous TRAF3 of macrophages (mouse (endogenous in macrophages)) (UniProt Q60803); test: co-IP
T1 sequence: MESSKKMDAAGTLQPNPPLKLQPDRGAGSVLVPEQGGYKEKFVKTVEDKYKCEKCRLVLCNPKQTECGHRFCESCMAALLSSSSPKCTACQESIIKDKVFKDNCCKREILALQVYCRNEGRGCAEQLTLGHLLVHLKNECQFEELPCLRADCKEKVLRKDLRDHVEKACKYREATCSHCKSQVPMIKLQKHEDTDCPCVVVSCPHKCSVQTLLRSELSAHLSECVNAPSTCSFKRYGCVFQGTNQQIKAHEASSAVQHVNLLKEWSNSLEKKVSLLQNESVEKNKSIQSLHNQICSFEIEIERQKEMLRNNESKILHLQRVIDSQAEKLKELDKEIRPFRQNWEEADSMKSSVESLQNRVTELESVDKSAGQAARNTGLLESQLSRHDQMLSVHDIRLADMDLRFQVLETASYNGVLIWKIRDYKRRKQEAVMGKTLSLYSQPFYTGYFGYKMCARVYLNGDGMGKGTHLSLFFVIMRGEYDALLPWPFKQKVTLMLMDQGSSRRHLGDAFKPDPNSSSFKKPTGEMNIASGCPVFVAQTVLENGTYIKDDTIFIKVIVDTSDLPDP

[2] = target: endogenous TRIF of THP-1 cells (human (endogenous in THP-1)) (UniProt Q8IUC6); test: co-IP; endogenous proteins, THP-1 cell extracts, cells treated with poly(I:C) overnight
[3] = target: T2, FLAG-tagged retinoic acid-inducible gene I (RIG-I) (UniProt O95786); test: co-IP; 293T cells co-transfected with a FLAG-tagged protein and HA-FOSL1; IP with anti-FLAG beads, immunoblot with anti-HA
T2 sequence: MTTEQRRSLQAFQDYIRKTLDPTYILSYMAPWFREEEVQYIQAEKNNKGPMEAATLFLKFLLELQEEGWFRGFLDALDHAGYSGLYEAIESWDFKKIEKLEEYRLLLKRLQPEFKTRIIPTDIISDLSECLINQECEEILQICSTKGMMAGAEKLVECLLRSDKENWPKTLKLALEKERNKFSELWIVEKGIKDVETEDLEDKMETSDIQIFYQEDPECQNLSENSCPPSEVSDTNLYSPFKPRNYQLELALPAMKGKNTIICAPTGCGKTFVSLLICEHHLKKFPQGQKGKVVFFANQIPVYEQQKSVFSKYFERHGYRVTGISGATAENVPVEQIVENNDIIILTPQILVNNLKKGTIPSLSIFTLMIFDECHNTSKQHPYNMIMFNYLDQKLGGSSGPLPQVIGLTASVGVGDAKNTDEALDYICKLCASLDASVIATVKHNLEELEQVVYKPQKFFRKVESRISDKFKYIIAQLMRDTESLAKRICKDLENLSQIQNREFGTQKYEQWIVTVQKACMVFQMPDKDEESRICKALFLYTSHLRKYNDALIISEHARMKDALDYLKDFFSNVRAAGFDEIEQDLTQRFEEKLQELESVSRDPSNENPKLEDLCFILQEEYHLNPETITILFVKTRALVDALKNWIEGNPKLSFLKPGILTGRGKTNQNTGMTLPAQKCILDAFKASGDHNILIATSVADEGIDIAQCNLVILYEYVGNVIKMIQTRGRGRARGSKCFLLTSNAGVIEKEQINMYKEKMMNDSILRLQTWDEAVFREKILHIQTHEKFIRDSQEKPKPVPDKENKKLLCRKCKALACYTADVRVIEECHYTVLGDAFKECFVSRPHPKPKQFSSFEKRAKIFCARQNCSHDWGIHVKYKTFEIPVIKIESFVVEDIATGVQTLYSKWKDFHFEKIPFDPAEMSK

FLAG-tagged TRAF5 = FLAG-tagged TRAF5 (UniProt O00463); test: as above
[4] = target: T3, FLAG-tagged Tank-binding kinase 1 (TBK1) (UniProt Q9UHD2); test: as above
T3 sequence: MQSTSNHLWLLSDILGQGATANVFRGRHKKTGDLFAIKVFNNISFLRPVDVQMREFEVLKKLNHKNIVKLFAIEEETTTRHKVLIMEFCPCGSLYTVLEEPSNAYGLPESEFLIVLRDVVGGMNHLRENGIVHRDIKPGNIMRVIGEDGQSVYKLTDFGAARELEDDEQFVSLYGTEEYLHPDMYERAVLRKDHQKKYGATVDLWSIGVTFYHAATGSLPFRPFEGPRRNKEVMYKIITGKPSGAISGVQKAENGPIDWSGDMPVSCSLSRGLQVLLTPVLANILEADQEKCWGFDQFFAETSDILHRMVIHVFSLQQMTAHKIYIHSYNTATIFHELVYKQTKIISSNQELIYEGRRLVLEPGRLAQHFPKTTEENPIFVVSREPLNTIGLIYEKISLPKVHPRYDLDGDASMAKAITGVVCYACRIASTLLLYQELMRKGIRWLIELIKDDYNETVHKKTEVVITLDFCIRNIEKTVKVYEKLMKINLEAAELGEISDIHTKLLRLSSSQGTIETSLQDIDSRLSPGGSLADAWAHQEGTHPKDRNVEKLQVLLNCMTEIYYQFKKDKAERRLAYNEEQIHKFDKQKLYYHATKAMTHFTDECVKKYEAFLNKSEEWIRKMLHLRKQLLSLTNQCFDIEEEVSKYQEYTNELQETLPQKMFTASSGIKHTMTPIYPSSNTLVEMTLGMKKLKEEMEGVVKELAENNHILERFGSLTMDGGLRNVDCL

FLAG-tagged TRAF2 = target: T4, FLAG-tagged TRAF2 (UniProt Q12933); test: as above
T4 sequence: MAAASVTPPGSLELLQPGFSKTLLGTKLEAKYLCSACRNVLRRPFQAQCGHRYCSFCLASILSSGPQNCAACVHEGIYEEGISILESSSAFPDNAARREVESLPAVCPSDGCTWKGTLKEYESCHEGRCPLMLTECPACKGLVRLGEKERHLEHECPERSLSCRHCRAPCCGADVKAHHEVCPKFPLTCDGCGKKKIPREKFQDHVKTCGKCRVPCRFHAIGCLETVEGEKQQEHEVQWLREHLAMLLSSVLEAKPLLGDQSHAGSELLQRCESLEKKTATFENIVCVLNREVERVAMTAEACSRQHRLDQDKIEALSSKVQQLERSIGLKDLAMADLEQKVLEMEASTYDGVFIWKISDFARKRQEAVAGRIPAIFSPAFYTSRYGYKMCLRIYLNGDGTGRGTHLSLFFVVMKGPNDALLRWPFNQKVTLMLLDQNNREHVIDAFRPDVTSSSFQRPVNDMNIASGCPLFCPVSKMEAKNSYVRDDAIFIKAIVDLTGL

B1: endogenous FOSL1 of macrophages (protein, UniProt P48755 1-273)
chain: MYRDYGEPGPSSGAGSPYGRPAQPPQAQAQTAQQQKFHLVPSIDSSSQELHWMVQPHFLGPTGYPRPLAYPQYSPPQPRPGVIRALGPPPGVRRRPCEQISPEEEERRRVRRERNKLAAAKCRNRRKELTDFLQAETDKLEDEKSGLQREIEELQKQKERLELVLEAHRPICKIPEGDKKDPGGSGSTSGASSPPAPGRPVPCISLSPGPVLEPEALHTPTLMTTPSLTPFTPSLVFTYPSTPEPCSSAHRKSSSSSGDPSSDPLGSPTLLAL
In the case of B1, the binding [1] is reported as “binds”.

B2: endogenous FOSL1 of THP-1 cells (protein, UniProt P15407 1-271)
chain: MFRDFGEPGPSSGNGGGYGGPAQPPAAAQAAQQKFHLVPSINTMSGSQELQWMVQPHFLGPSSYPRPLTYPQYSPPQPRPGVIRALGPPPGVRRRPCEQISPEEEERRRVRRERNKLAAAKCRNRRKELTDFLQAETDKLEDEKSGLQREIEELQKQKERLELVLEAHRPICKIPEGAKEGDTGSTSGTSSPPAPCRPVPCISLSPGPVLEPEALHTPTLMTTPSLTPFTPSLVFTYPSTPEPCASAHRKSSSSSGDPSSDPLGSPTLLAL
In the case of B2, the binding [2] is reported as “binds”.

B3: HA-tagged FOS-like antigen 1 (FOSL1) (protein, UniProt P15407 1-271)
chain: B2 chain
In the case of B3, the binding [3] is reported as “no binding”, the binding (FLAG-tagged TRAF5) is reported as “no binding” and the binding [4] is reported as “no binding”. For the same binder, the binding (FLAG-tagged TRAF2) was “no binding”.
